# Source: PubChem BioAssay (NCATS)
# Inconclusive means that the source gave no clear call. Such entries were picked first, then a sample of the others. Potencies of inconclusive entries are doubtful fits and often do not repeat. The source made the active and inactive calls. Calls come from the whole dose curve; as a rule, active = well fitted inhibition curve with a large enough effect; inconclusive = small, poorly fitted or top-dose-only effect; inactive = no such curve, though single readings can be large or run the other way.
# Assay: qHTS to identify inhibitors of the type 1 interferon - major histocompatibility complex class I in skeletal muscle: primary screen against the NCATS Mechanism Interrogation Plate v5.0 (MIPE) Libary (AID 1347411); note: nearly all actives have a fitted effect of over 65% in size;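 for activity change, negative = inhibition: plate controls were vehicle for no effect and reference inhibitor for full effect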
# Settings: iHSKM cells + IFN-b, HiBiT-tagged MHC-I luminescence, 24 h; activity change, negative = inhibition: at 45.8 µM (top of the series)
# How it was run: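 Luminescence from HiBiT-tagged endogenous HLA-B*08:01 served as the MHC class I read-out. CRISPR-engineered C25cl48 human myoblasts received 4.0 ng/ml IFN-beta plus compound for 24 hrs, with an 11-point, 1:3 series topping at 46 uM final.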
# Potency is the fitted concentration of half-maximal effect; tags give direction and shape of the fitted curve.
Compound,Potency,"activity change, negative = inhibition"
COc1ncc(-c2ccc3nccc(-c4ccnnc4)c3c2)cc1NS(=O)(=O)c1ccc(F)cc1F,"inconclusive: 0.033 µM [inhibitor, full curve]",
COC(=O)Nc1ccc(-c2nc(N3CCOCC3)c3cnn(C4CCN(C(=O)OC)CC4)c3n2)cc1,"inconclusive: 0.37 µM [inhibitor, full curve]",
Cc1[nH]c(=O)c(C#N)cc1-c1ccncc1,inactive,
CC1=C[C@@H]2[C@@H]([C@@H](O)C[C@@]3(C)[C@H]2C[C@@H](C)[C@]3(O)C(=O)CO)[C@@]2(C)Cc3cnn(-c4ccccc4)c3C=C12,,inconclusive: -37.4% [inhibitor]
COc1cc2c(Oc3ccc(NC(=O)C4(C(=O)Nc5ccc(F)cc5)CC4)cc3F)ccnc2cc1OCCCN1CCOCC1,"inconclusive: 23.4 µM [inhibitor, partial curve, poor fit]",
O=C(O)c1cccc(-c2noc(-c3ccccc3F)n2)c1,inactive,
Cc1nc(N)sc1-c1ccnc(Nc2ccc(N3CCOCC3)cc2)n1,active: 3.7 µM,
COc1cc(Nc2ncc(F)c(Nc3ccc4c(n3)NC(=O)C(C)(C)O4)n2)cc(OC)c1OC,"inconclusive: 1.47 µM [inhibitor, full curve]",
C[C@H](NC(=O)C(=O)Nc1ccccc1C(C)(C)C)C(=O)N[C@@H](CC(=O)O)C(=O)COc1c(F)c(F)cc(F)c1F,active: 13.1 µM,
O=C1C(Cl)=C(NCCN2CCOCC2)C(=O)c2ncccc21,active: 2.94 µM,
Cc1cccc(Nc2nc(-c3ccncc3)cs2)c1,,inconclusive: -37.4% [inhibitor]
CC(C)C[C@@H](C(=O)N[C@H](C(=O)OC1CCCC1)c1ccccc1)[C@H](O)C(=O)NO,"inconclusive: 29.4 µM [inhibitor, partial curve]",
O=C1CCCC2=C1C(c1[nH]ncc1Cl)N=C(Nc1nc3ccccc3o1)N2 (stereo not given),inactive,
O=C(O)Cc1cccc(OCCCN(Cc2cccc(C(F)(F)F)c2Cl)CC(c2ccccc2)c2ccccc2)c1,inactive,
O=c1c(O)c(-c2ccc(O)cc2)oc2cc(O)cc(O)c12,,inconclusive: -39.4% [inhibitor]
Cc1cnc(Nc2ccc(OCCN3CCCC3)cc2)nc1Nc1cccc(S(=O)(=O)NC(C)(C)C)c1,active: 5.23 µM,
CNCc1ccc(-c2[nH]c3cc(F)cc4c3c2CCNC4=O)cc1,"inconclusive: 18.6 µM [inhibitor, partial curve]",
COc1ccc(CC2=NN3C([C@@H](CCc4ccccc4)[C@@H](C)O)=NC(C)C3C(=O)N2)cc1OC (stereo not given in full),inactive,
CC(C)(O)c1cc2nc(-c3cnc(N)nc3)nc(N3CCOCC3)c2s1,"inconclusive: 0.93 µM [inhibitor, full curve]",
CN(C)c1ccc(Nc2nc(N)n(C(=O)c3c(F)cccc3F)n2)cc1,active: 16.5 µM,
CCCCc1ccc2nc(NC(=O)OC)[nH]c2c1,"inconclusive: 0.262 µM [inhibitor, full curve]",
NC(CO)(CO)CCc1ccc(Sc2cccc(OCc3ccccc3)c2)cc1Cl,"inconclusive: 29.4 µM [inhibitor, single point]",
CS(=O)c1ccc(-c2nc(-c3ccc(F)cc3)c(-c3ccncc3)[nH]2)cc1 (stereo not given),"inconclusive: 7.39 µM [inhibitor, partial curve, poor fit]",
CCCS(=O)c1ccc2nc(NC(=O)OC)[nH]c2c1 (stereo not given),inactive,
COc1ccc(-c2coc3cc(O)cc(O)c3c2=O)cc1,active: 16.5 µM,
O=c1cc(-c2ccccc2)oc2cc(O)cc(O)c12,"inconclusive: 18.6 µM [inhibitor, partial curve]",
CC[C@@]1(O)C[C@H](O[C@H]2C[C@H](N(C)C)[C@H](O[C@H]3C[C@H](O)[C@H](O[C@H]4CCC(=O)[C@H](C)O4)[C@H](C)O3)[C@H](C)O2)c2c(cc3c(c2O)C(=O)c2c(O)cccc2C3=O)[C@@H]1C(=O)OC,"inconclusive: 20.8 µM [inhibitor, partial curve, poor fit]",
CN1CCN(C2=Nc3cc(Cl)ccc3Nc3ccccc32)CC1,inactive,
CC(C)CNc1ccnc(NCc2csc(-c3ccccc3)n2)n1,active: 16.5 µM,
O=C(NCc1ccccc1)c1csc(Nc2ccncn2)n1,"inconclusive: 33 µM [inhibitor, partial curve, poor fit]",
